# In patent US9433687B2, “Anti-Notch3 antibodies and antibody-drug conjugates” (Pfizer Inc., priority 2012, dated 2016):
# B1: hu28-vc0101: hu28 conjugated to vc0101 linker-payload (conjugate)
# heavy: EVQLVESGGGLVQPGGSLRLSCAASGFTFRDYGMTWVRQAPGKGLEWVAYISSGSNYIYYAEAVKGRFTISRDNAKNSLYLQMNSLRAEDTAVYYCARRGPFVLDAWGQGTLVTVSS[letters of human IgG1 constant region omitted]
# light: DIQMTQSPSSLSASVGDRVTITCKASQSINRYLHWYQQKPGKAPKLLIYNANGLQTGVPSRFSGSGSGTDFTLTISSLQPEDFATYYCLQHNTWPDTFGGGTKVEIKRTVAAPSVFIFPPSDEQLKSGTASVVCLLNNFYPREAKVQWKVDNALQSGNSQESVTEQDSKDSTYSLSSTLTLSKADYEKHKVYACEVTHQGLSSPVTKSFNRGEC
# How the values were obtained:
# [1] = test system: MDA-MB-468 (breast cancer); assay: In vitro cytotoxicity (MTS), MDA-MB-468; type: cell-based, human; conditions: Table 14; LP = lacked potency
# Method: The effects of anti-Notch3 ADCs were assessed on 1) cell lines endogenously expressing Notch3 protein: HCC2429 (lung cancer), OVCAR3 (ovarian cancer) and MDA-MB-468 (breast cancer), 2) cell lines engineered to over-express full length human Notch3 protein: MDA-MB-468/hNotch3 and U2OS/hNotch3, and 3) a negative control cell line (SW900) using an MTS cellular viability indicator (Promega, Madison, Wis.). These cell lines were cultured with increasing concentrations of anti-Notch3 ADCs comprising rat-human chimeric anti-Notch3 antibodies, ch28 and ch75, and humanized anti-Notch3 antibodies, hu28 and hu75, conjugated to various linker-payload combinations of the present invention. As a specificity control for the anti-Notch3-ADCs, non-targeted control-ADCs (huNeg8.8-ADCs or ch2H6-ADCs) were also tested on the same cell lines. After four days, viability of each culture was assessed. IC50 values were calculated by logistic non-linear regression, model #203 with XL fit v4.2 (IDBS, Guildford, Surry, UK) and presented as ng Ab/mL. The drug antibody ratio (DAR) is also provided.
# [2] = test system: 37622A1 NSCLC patient-derived xenografts; assay: 37622A1 patient derived NSCLC xenograft model; type: in vivo, mouse; conditions: 3 mg/kg iv Q4dx4
# Text: The effects of anti-Notch3 ADCs were examined in immunodeficient mice on the in vivo growth of human tumor xenografts that were established from fragments of freshly resected 37622A1 NSCLC tumors obtained in accordance with appropriate consent procedures (Asterand). The 37622A1 NSCLC patient-derived xenografts were subcutaneously passaged in vivo as fragments from animal to animal in nude (Nu/Nu) female mice. When the tumors reached a volume of 150 to 300 mm^3, they were staged to ensure uniformity of the tumor size among various treatment groups. The 37622A1 NSCLC patient-derived xenografts model was dosed intravenously four times every four days (Q4d×4) with PBS vehicle, humanized anti-Notch3 ADCs, control huNeg-8.8 ADCs and cisplatin at the doses provided in Table 19.
# [3] = test system: OVCAR3 ovarian xenografts; assay: OVCAR3 ovarian xenograft model
molecule,measurement,setting,value
B1,"IC50 (ng Ab/mL), MDA-MB-468",[1],6545 ng Ab/mL
same,tumor volume,[2]; Day 4,202 mm^3
same,tumor volume,[2]; Day 7,202 mm^3
same,tumor volume,[2]; Day 11,130 mm^3
same,tumor volume,[2]; Day 14,119 mm^3
same,tumor volume,[2]; Day 18,71 mm^3
same,tumor volume,[2]; Day 21,55 mm^3
same,tumor volume,[2]; Day 25,49 mm^3
same,tumor volume,[2]; Day 28,41 mm^3
same,tumor volume,[2]; Day 32,42 mm^3
same,tumor volume,[2]; Day 35,42 mm^3
same,tumor volume,[2]; Day 39,62 mm^3
same,tumor volume,[2]; Day 42,75 mm^3
same,tumor volume,[2]; Day 46,92 mm^3
same,tumor volume,[2]; Day 49,120 mm^3
same,tumor volume,[2]; Day 53,144 mm^3
same,tumor volume,[2]; Day 56,126 mm^3
same,tumor volume,[2]; Day 60,180 mm^3
same,tumor volume,[2]; Day 63,223 mm^3
same,tumor volume,[2]; Day 67,296 mm^3
same,tumor volume,[2]; Day 70,312 mm^3
same,tumor volume,[2]; Day 74,331 mm^3
same,tumor volume,[2]; Day 77,422 mm^3
same,tumor volume,[2]; Day 81,510 mm^3
same,tumor volume,[2]; Day 84,622 mm^3
same,tumor volume,[2]; Day -1,186 mm^3
same,animals still on study that remained tumor-free,[2]; by day 84,four out of nine
same,tumor volume,"[3]; DAY 0, dose 0.3 mg/kg intravenously Q4d×4",168 mm3
same,tumor volume,"[3]; DAY 0, dose 1 mg/kg intravenously Q4d×4",169 mm3
same,tumor volume,"[3]; DAY 0, dose 3 mg/kg intravenously Q4d×4",169 mm3
same,tumor volume,"[3]; DAY 2, dose 1 mg/kg, intravenously Q4d×4",249 mm3
same,tumor volume,"[3]; DAY 2, dose 3 mg/kg, intravenously Q4d×4",246 mm3
same,tumor volume,"[3]; DAY 3, dose 0.3 mg/kg intravenously Q4d×4",291 mm3
same,tumor volume,"[3]; DAY 3, dose 1 mg/kg intravenously Q4d×4",255 mm3
same,tumor volume,"[3]; DAY 3, dose 3 mg/kg intravenously Q4d×4",253 mm3
same,tumor volume,"[3]; DAY 6, dose 0.3 mg/kg intravenously Q4d×4",302 mm3
same,tumor volume,"[3]; DAY 6, dose 1 mg/kg intravenously Q4d×4",226 mm3
same,tumor volume,"[3]; DAY 6, dose 1 mg/kg, intravenously Q4d×4",257 mm3
same,tumor volume,"[3]; DAY 6, dose 3 mg/kg intravenously Q4d×4",180 mm3
same,tumor volume,"[3]; DAY 6, dose 3 mg/kg, intravenously Q4d×4",219 mm3
same,tumor volume,"[3]; DAY 9, dose 1 mg/kg, intravenously Q4d×4",282 mm3
same,tumor volume,"[3]; DAY 9, dose 3 mg/kg, intravenously Q4d×4",192 mm3
same,tumor volume,"[3]; DAY 11, dose 0.3 mg/kg intravenously Q4d×4",394 mm3
same,tumor volume,"[3]; DAY 11, dose 1 mg/kg intravenously Q4d×4",216 mm3
same,tumor volume,"[3]; DAY 11, dose 3 mg/kg intravenously Q4d×4",113 mm3
same,tumor volume,"[3]; DAY 12, dose 1 mg/kg, intravenously Q4d×4",257 mm3
same,tumor volume,"[3]; DAY 12, dose 3 mg/kg, intravenously Q4d×4",133 mm3
same,tumor volume,"[3]; DAY 14, dose 0.3 mg/kg intravenously Q4d×4",510 mm3
same,tumor volume,"[3]; DAY 14, dose 1 mg/kg intravenously Q4d×4",242 mm3
same,tumor volume,"[3]; DAY 14, dose 3 mg/kg intravenously Q4d×4",104 mm3
same,tumor volume,"[3]; DAY 15, dose 1 mg/kg, intravenously Q4d×4",263 mm3
same,tumor volume,"[3]; DAY 15, dose 3 mg/kg, intravenously Q4d×4",99 mm3
same,tumor volume,"[3]; DAY 18, dose 0.3 mg/kg intravenously Q4d×4",601 mm3
same,tumor volume,"[3]; DAY 18, dose 1 mg/kg intravenously Q4d×4",212 mm3
same,tumor volume,"[3]; DAY 18, dose 3 mg/kg intravenously Q4d×4",72 mm3
same,tumor volume,"[3]; DAY 19, dose 1 mg/kg, intravenously Q4d×4",236 mm3
same,tumor volume,"[3]; DAY 19, dose 3 mg/kg, intravenously Q4d×4",73 mm3
same,tumor volume,"[3]; DAY 21, dose 0.3 mg/kg intravenously Q4d×4",685 mm3
same,tumor volume,"[3]; DAY 21, dose 1 mg/kg intravenously Q4d×4",190 mm3
same,tumor volume,"[3]; DAY 21, dose 3 mg/kg intravenously Q4d×4",57 mm3
same,tumor volume,"[3]; DAY 22, dose 1 mg/kg, intravenously Q4d×4",251 mm3
same,tumor volume,"[3]; DAY 22, dose 3 mg/kg, intravenously Q4d×4",63 mm3
same,tumor volume,"[3]; DAY 25, dose 0.3 mg/kg intravenously Q4d×4",767 mm3
same,tumor volume,"[3]; DAY 25, dose 1 mg/kg intravenously Q4d×4",216 mm3
same,tumor volume,"[3]; DAY 25, dose 3 mg/kg intravenously Q4d×4",49 mm3
same,tumor volume,"[3]; DAY 26, dose 1 mg/kg, intravenously Q4d×4",303 mm3
same,tumor volume,"[3]; DAY 26, dose 3 mg/kg, intravenously Q4d×4",63 mm3
same,tumor volume,"[3]; DAY 28, dose 0.3 mg/kg intravenously Q4d×4",841 mm3
same,tumor volume,"[3]; DAY 28, dose 1 mg/kg intravenously Q4d×4",282 mm3
same,tumor volume,"[3]; DAY 28, dose 3 mg/kg intravenously Q4d×4",47 mm3
same,tumor volume,"[3]; DAY 29, dose 1 mg/kg, intravenously Q4d×4",396 mm3
same,tumor volume,"[3]; DAY 29, dose 3 mg/kg, intravenously Q4d×4",56 mm3
same,tumor volume,"[3]; DAY 31, dose 0.3 mg/kg intravenously Q4d×4",926 mm3
same,tumor volume,"[3]; DAY 31, dose 1 mg/kg intravenously Q4d×4",292 mm3
same,tumor volume,"[3]; DAY 31, dose 3 mg/kg intravenously Q4d×4",48 mm3
same,tumor volume,"[3]; DAY 33, dose 1 mg/kg, intravenously Q4d×4",555 mm3
same,tumor volume,"[3]; DAY 33, dose 3 mg/kg, intravenously Q4d×4",58 mm3
same,tumor volume,"[3]; DAY 34, dose 0.3 mg/kg intravenously Q4d×4",1038 mm3
same,tumor volume,"[3]; DAY 34, dose 1 mg/kg intravenously Q4d×4",350 mm3
same,tumor volume,"[3]; DAY 34, dose 3 mg/kg intravenously Q4d×4",48 mm3
same,tumor volume,"[3]; DAY 36, dose 1 mg/kg, intravenously Q4d×4",683 mm3
same,tumor volume,"[3]; DAY 36, dose 3 mg/kg, intravenously Q4d×4",56 mm3
same,tumor volume,"[3]; DAY 38, dose 0.3 mg/kg intravenously Q4d×4",1191 mm3
same,tumor volume,"[3]; DAY 38, dose 1 mg/kg intravenously Q4d×4",497 mm3
same,tumor volume,"[3]; DAY 38, dose 3 mg/kg intravenously Q4d×4",49 mm3
same,tumor volume,"[3]; DAY 40, dose 1 mg/kg, intravenously Q4d×4",811 mm3
same,tumor volume,"[3]; DAY 40, dose 3 mg/kg, intravenously Q4d×4",58 mm3
same,tumor volume,"[3]; DAY 41, dose 0.3 mg/kg intravenously Q4d×4",1254 mm3
same,tumor volume,"[3]; DAY 41, dose 1 mg/kg intravenously Q4d×4",559 mm3
same,tumor volume,"[3]; DAY 41, dose 3 mg/kg intravenously Q4d×4",40 mm3
same,tumor volume,"[3]; DAY 42, dose 1 mg/kg, intravenously Q4d×4",850 mm3
same,tumor volume,"[3]; DAY 42, dose 3 mg/kg, intravenously Q4d×4",55 mm3
same,tumor volume,"[3]; DAY 45, dose 0.3 mg/kg intravenously Q4d×4",1486 mm3
same,tumor volume,"[3]; DAY 45, dose 1 mg/kg intravenously Q4d×4",750 mm3
same,tumor volume,"[3]; DAY 45, dose 3 mg/kg intravenously Q4d×4",39 mm3
same,tumor volume,"[3]; DAY 47, dose 1 mg/kg, intravenously Q4d×4",1121 mm3
same,tumor volume,"[3]; DAY 47, dose 3 mg/kg, intravenously Q4d×4",76 mm3
same,tumor volume,"[3]; DAY 49, dose 0.3 mg/kg intravenously Q4d×4",1479 mm3
same,tumor volume,"[3]; DAY 49, dose 1 mg/kg intravenously Q4d×4",781 mm3
same,tumor volume,"[3]; DAY 49, dose 3 mg/kg intravenously Q4d×4",33 mm3
same,tumor volume,"[3]; DAY 50, dose 1 mg/kg, intravenously Q4d×4",1107 mm3
same,tumor volume,"[3]; DAY 50, dose 3 mg/kg, intravenously Q4d×4",74 mm3
same,tumor volume,"[3]; DAY 53, dose 1 mg/kg intravenously Q4d×4",934 mm3
same,tumor volume,"[3]; DAY 53, dose 3 mg/kg intravenously Q4d×4",34 mm3
same,tumor volume,"[3]; DAY 56, dose 1 mg/kg intravenously Q4d×4",991 mm3
same,tumor volume,"[3]; DAY 56, dose 3 mg/kg intravenously Q4d×4",30 mm3
same,tumor volume,"[3]; DAY 59, dose 1 mg/kg intravenously Q4d×4",1149 mm3
same,tumor volume,"[3]; DAY 59, dose 3 mg/kg intravenously Q4d×4",33 mm3
same,tumor volume,"[3]; DAY 63, dose 1 mg/kg intravenously Q4d×4",1421 mm3
same,tumor volume,"[3]; DAY 63, dose 3 mg/kg intravenously Q4d×4",35 mm3
same,tumor volume,"[3]; DAY 67, dose 3 mg/kg intravenously Q4d×4",32 mm3
same,tumor volume,"[3]; DAY 70, dose 3 mg/kg intravenously Q4d×4",33 mm3
same,tumor volume,"[3]; DAY 74, dose 3 mg/kg intravenously Q4d×4",41 mm3
same,tumor volume,"[3]; DAY 77, dose 3 mg/kg intravenously Q4d×4",50 mm3
same,tumor volume,"[3]; DAY 80, dose 3 mg/kg intravenously Q4d×4",56 mm3
same,tumor volume,"[3]; DAY 83, dose 3 mg/kg intravenously Q4d×4",63 mm3
same,tumor volume,"[3]; DAY 87, dose 3 mg/kg intravenously Q4d×4",87 mm3
same,tumor volume,"[3]; DAY 90, dose 3 mg/kg intravenously Q4d×4",84 mm3
same,tumor volume,"[3]; DAY 94, dose 3 mg/kg intravenously Q4d×4",137 mm3
same,tumor volume,"[3]; DAY 97, dose 3 mg/kg intravenously Q4d×4",129 mm3
same,tumor volume,"[3]; DAY 102, dose 3 mg/kg intravenously Q4d×4",153 mm3
same,tumor volume,"[3]; DAY 105, dose 3 mg/kg intravenously Q4d×4",176 mm3
same,tumor volume,"[3]; DAY 108, dose 3 mg/kg intravenously Q4d×4",232 mm3
same,tumor volume,"[3]; DAY 111, dose 3 mg/kg intravenously Q4d×4",271 mm3
same,tumor volume,"[3]; DAY 115, dose 3 mg/kg intravenously Q4d×4",323 mm3
same,tumor volume,"[3]; DAY 118, dose 3 mg/kg intravenously Q4d×4",318 mm3
same,tumor volume,"[3]; DAY 122, dose 3 mg/kg intravenously Q4d×4",399 mm3
